Measurements published in the supplement of paper PMC10126150.
Sequences with one replicate were seen in a single cluster, so their values are uncertain.
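Note: ATP exposure 15 min at 22 °C before imaging.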

What follows are sequences tested on ATP (assay: switch fluorescence ratio, 500 uM ATP over buffer (Cy3 cluster intensity, sum of 5 cycles each) (fold (ratio)); higher = stronger signal-on switching upon ATP binding; sequences stand for … in TCGTCGGCAGCGTCAGATGTGTATAAGAGACAGTTTTTTTTTTTTTTTTTTTTTTTTT…TC). Settings: aptamer strand: ATP DNA aptamer (quencher-CACCTGGGGGAGTATTGCGGAGGAAGG + anchor), 100 nM annealed; ATP concentration: 500 uM; one replicate.
Method in brief: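 Imaging in selection buffer was followed by imaging after 15 min with 500 uM ATP at 22 °C, for Cy3-labelled switching-strand clusters annealed to 100 nM quencher-labelled ATP aptamer on a modified Illumina MiSeq flow-cell. Five of these buffer/ATP cycles ran, separated by NaOH stripping and re-annealing. The fluorescence ratio per cluster is summed target-cycle over summed buffer-cycle Cy3 intensity, averaged per switch-domain sequence; clusters outside 100-1000 RFU were removed.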
For GCGGGCACGA, the switch fluorescence ratio was 0.982.
Sequence GCGGGCTTAT has a switch fluorescence ratio of 0.975.
In the case of GCGGGGCAGT, the switch fluorescence ratio is reported as 1.02.
In the case of GCGGGGGGA, the switch fluorescence ratio is reported as 0.996.
With GCGGGGGGT the switch fluorescence ratio was 1.01.
Sequence GCGGGGTTCG has a switch fluorescence ratio of 0.985.
Sequence GCGGGTTGCG has a switch fluorescence ratio of 0.998.
For GCGGTAATTA, the switch fluorescence ratio was 1.01.
With GCGGTAGTGT the switch fluorescence ratio was 0.944.
In the case of GCGGTATGGC, the switch fluorescence ratio is reported as 1.
GCGGTGATGC showed a switch fluorescence ratio of 0.961.
Work on GCGGTTATTT yielded a switch fluorescence ratio of 0.966.
GCGGTTGACG was tested, and the switch fluorescence ratio was 1.12.
Sequence GCGGTTGGCT has a switch fluorescence ratio of 1.05.
With GCGTAAAATG the switch fluorescence ratio was 1.2.
For GCGTACGGCC, the switch fluorescence ratio was 1.03.
Sequence GCGTACGGGG has a switch fluorescence ratio of 0.988.
Sequence GCGTAGTGTT has a switch fluorescence ratio of 0.997.
With GCGTCAATAT the switch fluorescence ratio was 4.32.
For GCGTCACCTT, the switch fluorescence ratio was 1.03.
GCGTCCTCAG showed a switch fluorescence ratio of 1.14.
GCGTCTCAAT showed a switch fluorescence ratio of 1.04.
GCGTCTTTTT gave a switch fluorescence ratio of 0.937.
Work on GCGTGATCA yielded a switch fluorescence ratio of 1.03.
Sequence GCGTGCATAA has a switch fluorescence ratio of 0.944.
GCGTGCTGCA was tested, and the switch fluorescence ratio was 1.03.
Work on GCGTGCTGCC yielded a switch fluorescence ratio of 1.01.
For GCGTGGCCGG, the switch fluorescence ratio was 1.03.
GCGTGGGGCA gave a switch fluorescence ratio of 0.955.
For GCGTGTCGTC, the switch fluorescence ratio was 1.03.
GCGTGTGCG was tested, and the switch fluorescence ratio was 0.994.
With GCGTTAAATT the switch fluorescence ratio was 1.01.
Sequence GCGTTAAGTG has a switch fluorescence ratio of 1.03.
With GCGTTCGTTA the switch fluorescence ratio was 0.994.
For GCGTTCTAGT, the switch fluorescence ratio was 0.997.
For GCGTTGAA, the switch fluorescence ratio was 1.
In the case of GCGTTGTCCG, the switch fluorescence ratio is reported as 1.15.
For GCGTTTCGTC, the switch fluorescence ratio was 0.958.
GCGTTTGCCT was tested, and the switch fluorescence ratio was 0.986.
GCTAACGTAG was tested, and the switch fluorescence ratio was 1.06.
For GCTAAGGGTA, the switch fluorescence ratio was 1.01.
With GCTAAGTAGC the switch fluorescence ratio was 0.966.
GCTAAGTTCG showed a switch fluorescence ratio of 0.997.
In the case of GCTAATATGC, the switch fluorescence ratio is reported as 0.982.
With GCTAATCAGG the switch fluorescence ratio was 1.03.
For GCTAATGGCA, the switch fluorescence ratio was 0.985.
With GCTACACTCA the switch fluorescence ratio was 1.08.
In the case of GCTACAGGC, the switch fluorescence ratio is reported as 1.01.
GCTACCGCA showed a switch fluorescence ratio of 1.12.
GCTACGAGCC was tested, and the switch fluorescence ratio was 1.28.
In the case of GCTACGGAGA, the switch fluorescence ratio is reported as 1.1.
For GCTACGGCTA, the switch fluorescence ratio was 1.11.
Sequence GCTACGTCCA has a switch fluorescence ratio of 1.05.
With GCTACTGTT the switch fluorescence ratio was 0.978.
With GCTACTTGA the switch fluorescence ratio was 1.03.
GCTACTTTCC gave a switch fluorescence ratio of 2.03.
Work on GCTAGAATGA yielded a switch fluorescence ratio of 0.982.
Sequence GCTAGACAGA has a switch fluorescence ratio of 1.04.
In the case of GCTAGATAAG, the switch fluorescence ratio is reported as 0.991.
With GCTAGATAGG the switch fluorescence ratio was 1.03.
GCTAGATTAT gave a switch fluorescence ratio of 0.987.
GCTAGATTGC gave a switch fluorescence ratio of 0.997.
Sequence GCTAGATTGT has a switch fluorescence ratio of 0.986.
GCTAGCTGAG was tested, and the switch fluorescence ratio was 1.02.
In the case of GCTAGGGGCA, the switch fluorescence ratio is reported as 1.08.
GCTAGGGTGA showed a switch fluorescence ratio of 1.08.
Work on GCTAGTGTGC yielded a switch fluorescence ratio of 0.977.
In the case of GCTATATGTT, the switch fluorescence ratio is reported as 1.01.
GCTATCATT was tested, and the switch fluorescence ratio was 0.992.
GCTATGACTC showed a switch fluorescence ratio of 1.12.
GCTATTAGAG showed a switch fluorescence ratio of 0.984.
GCTATTCGTT showed a switch fluorescence ratio of 0.943.
For GCTCAAAGGT, the switch fluorescence ratio was 0.99.
GCTCAAGGTT gave a switch fluorescence ratio of 0.978.
Work on GCTCAGACTG yielded a switch fluorescence ratio of 0.893.
For GCTCAGTCGG, the switch fluorescence ratio was 0.968.
GCTCCGATTA gave a switch fluorescence ratio of 3.67.
For GCTCCGCTCT, the switch fluorescence ratio was 3.38.
For GCTCCGTCAG, the switch fluorescence ratio was 4.67.
For GCTCCTCGCG, the switch fluorescence ratio was 1.17.
With GCTCCTTATC the switch fluorescence ratio was 1.25.
GCTCGCAGTG showed a switch fluorescence ratio of 1.04.
GCTCGGGGCT gave a switch fluorescence ratio of 1.03.
For GCTCGGTCAG, the switch fluorescence ratio was 1.
GCTCGTCTCG was tested, and the switch fluorescence ratio was 1.04.
In the case of GCTCTAAGCT, the switch fluorescence ratio is reported as 1.01.
With GCTCTATACC the switch fluorescence ratio was 1.06.
Work on GCTCTATCGA yielded a switch fluorescence ratio of 0.978.
GCTCTCCAGA was tested, and the switch fluorescence ratio was 1.02.
With GCTCTCCTCC the switch fluorescence ratio was 2.03.
With GCTCTCTGGA the switch fluorescence ratio was 1.02.
Sequence GCTCTTGGAA has a switch fluorescence ratio of 1.07.
For GCTCTTTAT, the switch fluorescence ratio was 1.06.
Sequence GCTGAACCGA has a switch fluorescence ratio of 1.05.
GCTGAATAGT gave a switch fluorescence ratio of 1.01.
GCTGACCCTA showed a switch fluorescence ratio of 1.03.
Sequence GCTGAGCTCC has a switch fluorescence ratio of 1.04.
With GCTGAGGTGG the switch fluorescence ratio was 1.03.
GCTGATCATG showed a switch fluorescence ratio of 1.01.
GCTGATTGAT was tested, and the switch fluorescence ratio was 0.976.
GCTGCACAA showed a switch fluorescence ratio of 1.08.
Work on GCTGCACTGA yielded a switch fluorescence ratio of 1.06.
With GCTGCCATTC the switch fluorescence ratio was 1.14.
Sequence GCTGCCCCGA has a switch fluorescence ratio of 1.09.
For GCTGCCGTTT, the switch fluorescence ratio was 1.01.
GCTGCGCCGA was tested, and the switch fluorescence ratio was 1.05.
Sequence GCTGCGTAGC has a switch fluorescence ratio of 1.02.
GCTGCGTGTT showed a switch fluorescence ratio of 0.989.
GCTGCTTTCA showed a switch fluorescence ratio of 1.
GCTGGACCCC showed a switch fluorescence ratio of 1.06.
Sequence GCTGGACTCA has a switch fluorescence ratio of 1.04.
GCTGGCATAC showed a switch fluorescence ratio of 2.32.
GCTGGCCGTC showed a switch fluorescence ratio of 1.02.
Work on GCTGGCCTAA yielded a switch fluorescence ratio of 1.02.
Sequence GCTGGCCTGT has a switch fluorescence ratio of 0.973.
For GCTGGCGACG, the switch fluorescence ratio was 1.05.
GCTGGGAACT gave a switch fluorescence ratio of 0.989.
For GCTGGGACGG, the switch fluorescence ratio was 0.988.
With GCTGGGATTT the switch fluorescence ratio was 1.01.
GCTGGGCCTA showed a switch fluorescence ratio of 0.998.
Work on GCTGGGGACA yielded a switch fluorescence ratio of 1.01.
For GCTGGGGT, the switch fluorescence ratio was 1.08.
In the case of GCTGGGTCCT, the switch fluorescence ratio is reported as 1.06.
GCTGGGTTGT showed a switch fluorescence ratio of 0.989.
Work on GCTGGTAGAA yielded a switch fluorescence ratio of 0.988.
For GCTGGTAGAC, the switch fluorescence ratio was 1.01.
For GCTGGTCGCG, the switch fluorescence ratio was 0.948.
Work on GCTGGTGAAA yielded a switch fluorescence ratio of 1.02.
GCTGGTGACG gave a switch fluorescence ratio of 1.
GCTGGTGATA gave a switch fluorescence ratio of 1.02.
Work on GCTGGTTTCA yielded a switch fluorescence ratio of 1.02.
Work on GCTGGTTTGA yielded a switch fluorescence ratio of 0.976.
GCTGTAATGT gave a switch fluorescence ratio of 1.03.
Sequence GCTGTAGCTA has a switch fluorescence ratio of 1.04.
Work on GCTGTCTAGC yielded a switch fluorescence ratio of 1.02.
GCTGTGACTG gave a switch fluorescence ratio of 0.99.
With GCTGTGAGAT the switch fluorescence ratio was 0.985.
GCTGTGATGC was tested, and the switch fluorescence ratio was 1.06.
With GCTGTGGCCG the switch fluorescence ratio was 1.01.
GCTGTGTACA was tested, and the switch fluorescence ratio was 0.987.
For GCTGTTGGT, the switch fluorescence ratio was 1.01.
GCTTAAGTAA was tested, and the switch fluorescence ratio was 0.959.
Sequence GCTTAGCACG has a switch fluorescence ratio of 1.04.
For GCTTAGGGGA, the switch fluorescence ratio was 1.11.
Work on GCTTAGGTTT yielded a switch fluorescence ratio of 1.02.
GCTTAGTAGT showed a switch fluorescence ratio of 0.971.
In the case of GCTTATCGGG, the switch fluorescence ratio is reported as 1.02.
Sequence GCTTATTGAT has a switch fluorescence ratio of 0.957.
With GCTTATTTCG the switch fluorescence ratio was 0.998.
GCTTATTTGA was tested, and the switch fluorescence ratio was 0.947.
In the case of GCTTCAACCG, the switch fluorescence ratio is reported as 1.63.
GCTTCAATG was tested, and the switch fluorescence ratio was 1.
GCTTCACTCA showed a switch fluorescence ratio of 1.01.
GCTTCGGCGG was tested, and the switch fluorescence ratio was 1.08.
In the case of GCTTCGGGG, the switch fluorescence ratio is reported as 0.996.
In the case of GCTTCTCGCG, the switch fluorescence ratio is reported as 0.992.
Work on GCTTCTTTTA yielded a switch fluorescence ratio of 0.986.
With GCTTGAGAAC the switch fluorescence ratio was 0.979.
Sequence GCTTGAGGAT has a switch fluorescence ratio of 1.03.
GCTTGCCGTG showed a switch fluorescence ratio of 1.02.
GCTTGCGCT gave a switch fluorescence ratio of 1.
GCTTGCGTAG was tested, and the switch fluorescence ratio was 1.05.
GCTTGCTGGA gave a switch fluorescence ratio of 0.999.
GCTTGGACCT showed a switch fluorescence ratio of 1.12.
For GCTTGGATCA, the switch fluorescence ratio was 1.04.
GCTTGGATGG showed a switch fluorescence ratio of 1.06.
Sequence GCTTGGGCAT has a switch fluorescence ratio of 1.01.
GCTTGGTACG gave a switch fluorescence ratio of 0.991.
GCTTGGTTCG was tested, and the switch fluorescence ratio was 0.987.
GCTTTCACT gave a switch fluorescence ratio of 1.01.
In the case of GCTTTCTGTT, the switch fluorescence ratio is reported as 0.963.
Sequence GCTTTGGGGG has a switch fluorescence ratio of 1.02.
For GCTTTGTTAG, the switch fluorescence ratio was 1.02.
GCTTTGTTCC gave a switch fluorescence ratio of 1.06.
In the case of GCTTTTGATC, the switch fluorescence ratio is reported as 0.969.
With GCTTTTTACT the switch fluorescence ratio was 0.999.
GCTTTTTCAG gave a switch fluorescence ratio of 0.981.
Sequence GGAAAAAAGC has a switch fluorescence ratio of 0.957.
With GGAAAAGAAT the switch fluorescence ratio was 1.02.
GGAAACCCGA showed a switch fluorescence ratio of 1.13.
Sequence GGAAACGCTG has a switch fluorescence ratio of 1.06.
Sequence GGAAACGTGT has a switch fluorescence ratio of 0.966.
GGAAAGGCAA showed a switch fluorescence ratio of 1.09.
GGAAAGGGCA showed a switch fluorescence ratio of 1.
For GGAAATCATG, the switch fluorescence ratio was 0.983.
Work on GGAAATCTGT yielded a switch fluorescence ratio of 1.05.
For GGAAATGAGG, the switch fluorescence ratio was 0.971.
Sequence GGAAATGTTA has a switch fluorescence ratio of 0.966.
Work on GGAACATGGA yielded a switch fluorescence ratio of 1.
GGAACCAAGT gave a switch fluorescence ratio of 1.05.
In the case of GGAACCATTT, the switch fluorescence ratio is reported as 1.01.
GGAACGGTTG showed a switch fluorescence ratio of 0.969.
GGAACGTTTG was tested, and the switch fluorescence ratio was 0.99.
Work on GGAACTACCG yielded a switch fluorescence ratio of 1.02.
GGAACTCCAA was tested, and the switch fluorescence ratio was 0.997.
In the case of GGAACTGCAA, the switch fluorescence ratio is reported as 2.15.
In the case of GGAAGATTGT, the switch fluorescence ratio is reported as 1.01.
GGAAGCGAC showed a switch fluorescence ratio of 1.07.
GGAAGGTTAA was tested, and the switch fluorescence ratio was 0.983.
With GGAAGTTTGG the switch fluorescence ratio was 0.984.
Sequence GGAATAAATC has a switch fluorescence ratio of 0.975.
